The results in this text go back to ChEMBL document CHEMBL1201862, “PubChem BioAssay data set” (2004).

Molecules are shown by their SMILES.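 Compound exposure: 48 hours, 5 concentrations, 96-well plates. GI50 = concentration required for 50% inhibition of growth.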 Activity calls are given as the source filed them. Cut-off read from the data, not from the text of the source: active = GI50 up to about 1.1 µM and inactive = higher.

The subject of this assay is NCI-H322M. The experiment in a line: NCI anticancer screen, dose series, 48 h.
For the molecule `[O-]c1c2c(nn1-c1ccc(F)cc1)c1ccccc1c[n+]2Cc1ccccc1`, the GI50 was inactive: 23.3 µM. For `O=C1OC(CN2CCN(c3ccccc3)CC2)CN1C(=S)Nc1ccccc1` (stereo not drawn) the value was inactive: > 100 µM; for `O=S(=O)(CC1=NC2C=CC=CC2N=C1)NCc1ccccc1` (stereo not drawn), inactive: > 100 µM. For `O=NN(CCCl)C(=O)N[C@H]1CC[C@@H](O)CC1` the value was inactive: 98.2 µM; for `O=C1CCCCCCCCCCC1CCCCCBr` (stereo not drawn), inactive: 39.7 µM; for `N=C(N)n1nc2c(c1O)CCC2`, inactive: > 100 µM. For `COc1ccc(OC)c([N+](=O)[O-])c1-c1nc2sccn2c1/C=N/N=C(N)N`, the GI50 was inactive: 64.1 µM. For the molecule `O=C1C(Cl)C2(CC(/C=C/c3ccccc3Cl)=NN2c2cccc(S(=O)(=O)O)c2)N1c1nc2ccccc2s1` (stereo not drawn), the GI50 was inactive: > 100 µM.

As for `N#Cc1cccc2c1Nc1ccccc1S2`, the GI50 was inactive: > 100 µM. For `CCOC(=O)c1nc2ccc(C(F)(F)F)cc2nc1NCc1ccc(OC)c(OC)c1`, the GI50 was inactive: 52.8 µM.

On to `Cc1cc(NS(=O)(=O)c2ccc(NC(=O)c3ccc(Cl)c4c(Nc5ccc(S(=O)(=O)Nc6cc(C)on6)cc5)c5ccccc5nc34)cc2)no1`, for which the GI50 was inactive: 19 µM. Turning to `Cc1ccccc1NC(=O)Cc1nc2ccccc2s1`, the GI50 is inactive: 18.8 µM. On to `CCCCN1C(=O)C[C@H]2[C@@H]3CCc4cc(OCCN5CCCC5)ccc4[C@H]3CC[C@]2(C)C1=O`, for which the GI50 is inactive: 9.64 µM. With `CN(C(=O)c1ccc([N+](=O)[O-])cc1)c1ccccc1`, the GI50 is inactive: > 100 µM.

Take `CC(C)c1nc(Cl)c(Cl)c(Cl)n1`: the GI50 is inactive: 8.3 µM. On to `CC(C)(C)C1CCC2c3c([nH]c4ncccc34)C3C(=O)N(c4ccccc4)C(=O)C3C2C1` (stereo not drawn), for which the GI50 is inactive: > 100 µM. For `COC(=O)C1=C(O)C(C(=O)OC)[C@]2(O)[C@H](C(=O)OC)[C@H]1C[C@@H](c1ccc(Cl)cc1Cl)[C@H]2C(=O)OC` (stereo partly drawn), the GI50 was inactive: 14.9 µM. With `Cc1ccc(-c2n[nH]c(=O)[nH]2)cc1`, the GI50 was inactive: > 100 µM. In the case of `CN/C(=N\N)NS(=O)(=O)c1cc(C)c(Cl)cc1S`, the GI50 is inactive: 72.6 µM. Under `COc1cc(C(=O)C/C(CCC(=O)Nc2ccc(Cl)cc2Cl)=N/Nc2nnc(C)n2N)ccc1O` stands inactive: > 100 µM; under `COc1ccc2nc3cc(Cl)ccc3c(Nc3ccc(O)c(CN4CCN(C)CC4)c3)c2c1`, inactive: 1.71 µM.

As for `CC(=O)/C(=C/N1CC(=O)NC1=S)C(=O)Nc1ccccc1C`, the GI50 was inactive: > 100 µM. As to `COC(=O)[C@@H]1c2[nH]c3ccccc3c2C[C@@H]2c3ccccc3NC(=O)[C@@H]21`, the GI50 is inactive: > 96.2 µM. For the molecule `C/C=C\C(CC(=O)NCCC1CN(S(=O)(=O)C(F)(F)F)c2ccccc21)CC(=O)OC` (stereo not drawn), the GI50 was inactive: 71.3 µM.

With `COc1ccc(-c2cc(Cc3cccs3)c(=O)[nH]n2)cc1`, the GI50 was inactive: > 100 µM. For the molecule `O=C(O)c1nc2ccc(C(F)(F)F)cc2nc1NCc1ccc(Cl)c(Cl)c1`, the GI50 is inactive: 19.1 µM. In the case of `O=C1Nc2cccc(Cl)c2/C1=C\c1c(-c2ccccc2)nc2n1CCS2`, the GI50 is inactive: 26.5 µM. In the case of `O=c1oc2ccccc2c(O)c1C(C/C(CCN1CCCC1)=N/O)c1ccccc1` (stereo not drawn), the GI50 was inactive: > 100 µM. Under `COc1ccc(C(=O)N/N=C/c2c(C)n(C)n(-c3ccccc3)c2=O)cc1` stands inactive: > 100 µM. Consider `C[N+]1(CCC(=O)c2ccccc2)CCC2CCC(C2)C1` (stereo not drawn), for which the GI50 is inactive: > 100 µM.

Regarding `CCOC(=O)c1ccc(-n2cnc(-c3ccc([N+](=O)[O-])cc3)c2)cc1`, the GI50 was inactive: > 100 µM. Consider `CC(C)(C)C(=C[S+]([O-])/N=C/c1ccccc1)C(C)(C)C` (stereo not drawn), for which the GI50 was inactive: 84.1 µM.

Turning to `ClC(Cl)(Cl)C1CCOC1n1nc2ccccc2n1` (stereo not drawn), the GI50 is inactive: > 100 µM. In the case of `CSCCC(NC(=O)Cc1ccc(C(=O)c2ccccc2)cc1)C(=O)N1CCN(CCCCN2c3ccccc3Sc3cc(N=[N+]=[N-])ccc32)CC1` (stereo not drawn), the GI50 was inactive: > 100 µM.

Regarding `Cc1ccc(C)c2c1CC(Cc1ccccc1C(=O)O)C2=O` (stereo not drawn), the GI50 was inactive: > 100 µM.

Consider `CC1(C)CC(=O)c2c(nc3ccc4ccccc4c3c2-c2ccc(NC(=O)CCCCC(=O)Nc3ccc(-c4c5c(nc6ccc7ccccc7c46)CC(C)(C)CC5=O)cc3)cc2)C1`, for which the GI50 is inactive: > 100 µM. Turning to `CCOC(=O)c1c(C(F)(F)F)oc2c1ccc1nc3nonc3nc12`, the GI50 is inactive: 29.9 µM. For `Cc1n[nH]c(=O)n1/N=C/c1ccc([N+](=O)[O-])cc1` the value was inactive: 87.1 µM. For `CCCCCCC(=O)C/C(CCC(=O)N(Cc1ccccc1)Cc1ccccc1)=N\Nc1ccc([N+](=O)[O-])cc1[N+](=O)[O-]`, the GI50 is inactive: > 100 µM. Under `Cc1cc(C)nc(NS(=O)(=O)c2ccc(Nc3c4ccccc4nc4c(C(=O)N5CCN(CCOS(C)(=O)=O)CC5)cccc34)cc2)n1` stands inactive: > 100 µM; under `COc1cc(S(=O)(=O)Nc2nc(-c3ccc(N)cc3)cs2)ccc1Cl`, inactive: > 100 µM. As to `O=C(O)CCN(CCCN(CCC(=O)O)CCC(=O)O)CCC(=O)O`, the GI50 is inactive: > 100 µM.

As to `Nc1ncc(Cc2nn3c(COc4ccc(Cl)cc4)nnc3s2)s1`, the GI50 was inactive: 11.2 µM.

As to `COc1ccc(/C=C2\N=C(c3ccccc3)N(NC3=NC(=O)CC(=O)N3)C2=O)cc1`, the GI50 was inactive: > 100 µM.

On to `CC1=C(C(=O)OC23CC4CC(CC(C4)C2)C3)C(c2ccccc2OC(F)F)C(C(=O)OC23CC4CC(CC(C4)C2)C3)=C(C)N1` (stereo not drawn), for which the GI50 is inactive: > 100 µM. Turning to `O=C(OCC1OC(c2nn[nH]n2)C(OC(=O)c2ccccc2)C1OC(=O)c1ccccc1)c1ccccc1` (stereo not drawn), the GI50 was inactive: > 100 µM. With `O=C(N/N=C\c1cccc2ccccc12)Nc1ccccc1`, the GI50 is inactive: > 100 µM. For the molecule `CC(=O)OCC(OC(C)=O)C1C[C@H]2O[C@@H]3[C@H](C[C@H]2O1)O[C@@]1(C[C@@H]3C)C[C@H](C)[C@@H]2O[C@]3(C[C@@H]2O1)C[C@H]1O[C@H]2[C@H](C)[C@H]4OC(=O)CC5CC[C@H]6OC7[C@H]8O[C@]9(CC[C@H]%10CC(O)(CO)[C@H](CC[C@H]%11C[C@@H](C)C(O)(CO)C(C[C@@H]4O[C@H]2C[C@H]1O3)O%11)O%10)CC8O[C@@H]7[C@@H](O9)[C@H]6O5` (stereo partly drawn), the GI50 is active: 0.00635 µM. With `CC1=C2C(=CC(C)(CO)C2O)C(=O)C(C)(O)C12CC2` (stereo not drawn), the GI50 is active: 0.00984 µM. As to `COC(=O)[C@@]12C(=O)C=CC(=O)C1C1C(=CC2C)OC2OC3(CCCCC3)OC21` (stereo partly drawn), the GI50 is inactive: 18.6 µM. For `CCN(CC)C(=S)SS(=O)(=O)c1ccc([N+](=O)[O-])cc1`, the GI50 was inactive: > 100 µM. On to `CC(CC[C@@H](O)C(C)(C)O)C1[C@@H](O)CC2(C)C3CC(O)C4C(C)(C)[C@@H](OC5OC(CO)C(O)C(O)C5O)CC[C@@]45C[C@@]35CC[C@]12C` (stereo partly drawn), for which the GI50 was inactive: > 10 µM. For `O=C(/C=C/c1ccc(O)c(O)c1)NC(COC(=O)/C=C/c1ccc(O)c(O)c1)C(=O)O` (stereo not drawn) the value was inactive: > 100 µM.
